Laboratory results reported in PubChem BioAssay AID686979 (National Center for Advancing Translational Sciences (NCATS), 2013).
Out of some 420,000 compounds screened, about 50,000 (12%) were called active. Inconclusive results, whose numbers are uncertain, are shown with a selection of clear calls. The call rests on the fitted dose curve; in most records, active means well fitted inhibition curve with a large enough effect; inconclusive means small, poorly fitted or top-dose-only effect; inactive means flat fitted curve, though single readings scatter. No potency is given beside an inconclusive call; the fits are too rough.

Experiment: qHTS for Inhibitors of human tyrosyl-DNA phosphodiesterase 1 (TDP1): qHTS in cells in presence of CPT; further: nearly all actives have a fitted effect of over 55% in size
Details: chicken DT40 Tdp1-/-;hTDP1 cells + 20 nM CPT, ATP luminescence, 48 h; activity change, negative = growth inhibition: at 46.2 µM (top of the series) unless noted
Procedure, shortened: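 Chicken DT40 Tdp1-/- cells stably complemented with human TDP1 were seeded at 400 cells/well in medium containing 20 nM camptothecin, exposed to pin-transferred compounds, and grown at 37 °C for at least 48 hr. Viability was read as ATP luminescence.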
On the % scale 0 is the no-effect control and ±100 the full control effect; potency means the concentration at half of the fitted maximal effect; tags describe the fitted curve by direction and shape.

For `COCCNC(=O)c1onc(CCl)c1C(=O)OC`, which Potency is on record?
Its Potency is inconclusive [inhibitor, partial curve].

With `COc1ccc(NC(=O)CN2CCN(CC(=O)Nc3ccc(F)cc3)CC2)c(OC)c1` as the compound, how does the Potency read?
Its Potency is inconclusive [inhibitor, single point].

With `COc1cccc2cc(-c3nnc(SCC(=O)NCc4ccccc4)n3C)oc12` as the compound, how does the Potency read?
Its Potency is inconclusive [inhibitor, partial curve, poor fit].

For `COc1ccc(C(C(=O)NCc2ccccc2)N(C(=O)c2snc(C(N)=O)c2N)c2ccccc2OC)cc1OC` (configuration not stated), which Potency is on record?
Its Potency is inconclusive [inhibitor, single point].

With `Cc1ccc2c(c1)N(C(=O)CCC(=O)NCCCN1CCC(Cc3ccccc3)CC1)CCO2` as the compound, how does the Potency read?
The Potency was inconclusive [inhibitor, single point].

For `Cc1ccc(OCC(=O)NNC(=O)c2cc3ccccc3o2)cc1C`, which Potency is on record?
Its Potency is “inactive”.

For `O=C(c1ccco1)N(Cc1cccnc1)c1nc2c(F)cc(F)cc2s1`, which Potency is on record?
The Potency was inconclusive [inhibitor, single point].

Which Potency does the source give for `COc1ccc(-c2csc(-c3cc4ccccc4oc3=N)n2)cc1` here?
Its Potency is “inactive”.

With `CCOC(=O)/C=C/C(=O)Nc1ccc(S(=O)(=O)Nc2cc(OC)nc(OC)n2)cc1` as the compound, how does the Potency read?
The Potency was “inactive”.

With `CCn1c(-c2nonc2NC(=O)c2ccccc2)nc2ccccc21` as the compound, how does the Potency read?
The Potency was inconclusive [inhibitor, full curve, poor fit].

Which Potency does the source give for `Cc1ccc(NC(=O)CN(C)C(=O)Cc2ccc(Cl)c(Cl)c2)cc1` here?
Its Potency is active: 29.1 µM.

Which Potency does the source give for `COc1ccc(/C=C(\NC(=O)c2ccccc2Cl)C(=O)NCCCC(=O)O)cc1` here?
The Potency was “inactive”.

With `CC(C)Nc1nc2ccccc2c(=O)[nH]1` as the compound, how does the Potency read?
The Potency was active: 16.4 µM.

For `CCOCCCNC(=O)C(c1ccccc1)N(Cc1ccc2c(c1)OCO2)C(=O)c1ccc(NC(C)=O)cc1` (configuration not stated), which Potency is on record?
The Potency was inconclusive [inhibitor, single point].

Which Potency does the source give for `COc1ccc(C(=O)N/C(=C\c2cn(S(=O)(=O)N(C)C)c3ccccc23)C(=O)N2CCCC2)cc1` here?
Its Potency is inconclusive [inhibitor, single point].

With `COC(=O)c1c(NC(=O)c2ccc(S(=O)(=O)N3CCOCC3)cc2)sc2c1CCN(C)C2` as the compound, how does the Potency read?
The Potency was inconclusive [inhibitor, single point].

With `CC(=O)NCc1ccc(S(=O)(=O)NC(C)CCc2ccccc2)cc1` (configuration not stated) as the compound, how does the Potency read?
Its Potency is “inactive”.

Which Potency does the source give for `Cc1cccc(OC(=O)c2cccnc2)c1` here?
Its Potency is “inactive”.

Which Potency does the source give for `CC(=O)C1=C(C)Nc2ncnn2C1c1cccc(Br)c1` (configuration not stated) here?
Its Potency is “inactive”.

For `CC(C)(C)c1nnc2sc(SCC(=O)N3CCCc4ccccc43)nn2c1=O`, which Potency is on record?
The Potency was inconclusive [inhibitor, single point].

For `Cc1ccccc1CNC(=O)c1ccc2nc(SCc3ccc(F)cc3)n(C)c2c1`, which Potency is on record?
The Potency was inconclusive [inhibitor, single point].

Which Potency does the source give for `Cc1ccc([N+](=O)[O-])c(OCCCN2CCC(Cc3ccccc3)CC2)c1` here?
Its Potency is active: 20.6 µM.

With `CCCOc1ccc(C2NC(=O)CCC2[N+](=O)[O-])cc1` (configuration not stated) as the compound, how does the Potency read?
Its Potency is “inactive”.

For `O=C(/C=C/c1ccco1)NCC(=O)N/N=C/c1ccccc1[N+](=O)[O-]`, which Potency is on record?
The Potency was inconclusive [inhibitor, single point].

With `CSc1nc(N(CCO)CCO)c2sc3nc(-c4ccco4)c4c(c3c2n1)CCC4` as the compound, how does the Potency read?
Its Potency is active: 16.4 µM.

With `C[C@]12CC[C@@H]3c4ccc(O)cc4C[C@@H](CCCCCCCCCS(=O)CCCC(F)(F)C(F)(F)F)[C@H]3[C@@H]1CC[C@@H]2O` (some centres not stated) as the compound, how does the Potency read?
Its Potency is “inactive”.

With `CC(=O)c1cc2c(O)c(O)ccc2o1` as the compound, how does the Potency read?
Its Potency is inconclusive [inhibitor, partial curve].

Which Potency does the source give for `Cc1cccc2cc(CN(Cc3ccccc3)Cc3nnnn3Cc3ccccc3)c(=O)[nH]c12` here?
The Potency was inconclusive [inhibitor, single point].

With `CC(C)c1ccc(NC(=O)C2(C)Cc3c(-c4ccc(C(N)=O)cc4)ccnc3O2)cc1` (configuration not stated) as the compound, how does the Potency read?
The Potency was active: 16.4 µM.

Which Potency does the source give for `COc1ccccc1N1CCN(CC(O)c2ccc3cc[nH]c3c2)CC1` (configuration not stated) here?
Its Potency is inconclusive [inhibitor, partial curve].

With `Cc1ccc(NC(=O)CCc2ccc(C)o2)cc1` as the compound, how does the Potency read?
Its Potency is “inactive”.

With `O=C(CCCN1CCN(c2ccccc2)CC1)c1ccc(F)cc1` as the compound, how does the activity change, negative = growth inhibition read?
Its activity change, negative = growth inhibition is inconclusive: -30.1% [inhibitor].

For `CCOc1cccc(C2C=C(c3ccc4c(c3)OCO4)NC(c3ccc(F)cc3)N2)c1O` (configuration not stated), which Potency is on record?
The Potency was active: 14.1 µM.

With `COc1cccc(NC(=O)c2ccc3nc(C)c(N(C)Cc4ccc(NC(C)=O)cc4)n3c2)c1` as the compound, how does the Potency read?
Its Potency is inconclusive [inhibitor, single point].

For `CCOc1ccccc1NC(=O)COC(=O)COc1c(Cl)cc(Cl)c2ccc(C)nc12`, which Potency is on record?
The Potency was “inactive”.

For `CCCOc1ccc(-c2cccc(NS(=O)(=O)c3ccccc3)c2)nn1`, which Potency is on record?
The Potency was inconclusive [inhibitor, single point].

Which Potency does the source give for `C=CCNC(=S)NC1CC(C)(C)NC(C)(C)C1` here?
Its Potency is “inactive”.

For `C=CCn1cc(C(=O)NCCCOC)c(=O)c2cc(S(=O)(=O)N(CC)CC)ccc21`, which Potency is on record?
Its Potency is “inactive”.

With `CCC(=O)C1=C(c2ccc(F)cc2)N(C(=O)CC)n2cnnc2S1` as the compound, how does the Potency read?
The Potency was active: 18.4 µM.

With `CCN(CC)CCCN1C(=O)C(=O)/C(=C(/O)c2ccccc2)C1c1cc(OC)ccc1OC` (configuration not stated) as the compound, how does the Potency read?
The Potency was “inactive”.

For `Cc1ccccc1CN1C(=O)c2ccccc2S(=O)c2ccc(C(=O)NCc3ccc(Cl)cc3)cc21` (configuration not stated), which Potency is on record?
The Potency was inconclusive [inhibitor, single point].

Which Potency does the source give for `COC(=O)C1C2CC(=O)C(C2)C1C(=O)OC` (configuration not stated) here?
Its Potency is “inactive”.

With `O=C(NCc1ccc2c(c1)OCO2)c1ccc2c(c1)N(Cc1ccccc1F)C(=O)c1ccccc1S2` as the compound, how does the Potency read?
The Potency was “inactive”.

Which Potency does the source give for `Cc1cc(C(=O)NN=Cc2ccc(OC(=O)c3ccco3)cc2)c(C)o1` here?
Its Potency is inconclusive [inhibitor, single point].

Which Potency does the source give for `CC(C)N=C(NS(=O)(=O)c1ccc(Br)cc1)c1ccc(Cl)cc1` here?
Its Potency is “inactive”.

Which Potency does the source give for `CN(CC(=O)Nc1ccc(Cl)c(C(F)(F)F)c1)C(=O)c1cccc2cccnc12` here?
Its Potency is inconclusive [inhibitor, single point].

With `CCc1ccccc1NC(=O)CN(c1ccccc1)S(=O)(=O)c1ccsc1C(=O)OC` as the compound, how does the Potency read?
Its Potency is active: 16.4 µM.
